Results taken from PMC2661964, “Mammalian Kinesin-3 Motors Are Dimeric In Vivo and Move by Processive Motility upon Release of Autoinhibition” (PLoS Biology, 2009).
Results are given in words; binding and its absence hold for the method and conditions named. For some of these results: In cells and extracts the contact can be indirect. Some results given as binding are weak or reduced against the parent protein; the word gives no strength. For some of these results: Tags and fused reporters may be left off the sequences shown.

What was measured:
Myc-KIF1A (rat) = Myc-KIF1A (rat) (UniProt F1M4A4); assay: co-IP; lysates of COS cells coexpressing Myc- and mCit-tagged KIF1A constructs of the same length; immunoprecipitated with anti-Myc or control IgG, SDS-PAGE, immunoblot
[1] = molecular target: endogenous KIF1A in rat brain cytosol (rat (endogenous in rat brain)) (UniProt F1M4A4); assay: sucrose density gradient centrifugation; cytosolic extract of rat brain compared with detergent extracts of COS cells expressing Myc-KIF1A or mCit-KIF1A; fractions immunoblotted; standards catalase (11.3 S) and bovine serum albumin (4.3 S)
KIF1A(1–726)-Myc (rat) = molecular target: T1, KIF1A(1–726)-Myc (rat) (UniProt F1M4A4); assay: co-IP; lysates of COS cells coexpressing Myc- and mCit-tagged KIF1A constructs of the same length; immunoprecipitated with anti-Myc or control IgG, SDS-PAGE, immunoblot
T1 sequence: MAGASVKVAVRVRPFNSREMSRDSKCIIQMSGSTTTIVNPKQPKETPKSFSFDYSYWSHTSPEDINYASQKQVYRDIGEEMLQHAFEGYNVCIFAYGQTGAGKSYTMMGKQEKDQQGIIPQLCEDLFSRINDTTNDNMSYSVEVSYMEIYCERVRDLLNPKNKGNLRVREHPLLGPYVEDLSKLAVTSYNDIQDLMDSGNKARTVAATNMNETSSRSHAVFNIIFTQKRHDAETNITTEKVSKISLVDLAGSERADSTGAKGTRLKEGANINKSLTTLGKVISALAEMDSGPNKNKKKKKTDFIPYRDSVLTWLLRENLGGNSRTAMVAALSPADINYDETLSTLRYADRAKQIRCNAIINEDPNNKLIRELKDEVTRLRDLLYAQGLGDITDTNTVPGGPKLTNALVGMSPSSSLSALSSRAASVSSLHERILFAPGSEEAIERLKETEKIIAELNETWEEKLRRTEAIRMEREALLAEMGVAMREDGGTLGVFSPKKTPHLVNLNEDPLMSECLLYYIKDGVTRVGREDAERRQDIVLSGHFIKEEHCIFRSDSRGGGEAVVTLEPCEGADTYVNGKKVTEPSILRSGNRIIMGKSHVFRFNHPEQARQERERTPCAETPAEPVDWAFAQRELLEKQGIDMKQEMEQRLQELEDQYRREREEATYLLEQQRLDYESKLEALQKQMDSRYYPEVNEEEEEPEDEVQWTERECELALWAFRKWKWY

[2] = molecular target: T2, KIF1A(1–393)-3xmCit (rat) (UniProt F1M4A4); assay: two-colour single-molecule TIRF motility assay (co-migration); lysates of COS cells coexpressing KIF1A(1–393)-3xmCit and KIF1A(1–393)-3xmCherry on microtubules; mCit and mCherry tracked at once
T2 sequence: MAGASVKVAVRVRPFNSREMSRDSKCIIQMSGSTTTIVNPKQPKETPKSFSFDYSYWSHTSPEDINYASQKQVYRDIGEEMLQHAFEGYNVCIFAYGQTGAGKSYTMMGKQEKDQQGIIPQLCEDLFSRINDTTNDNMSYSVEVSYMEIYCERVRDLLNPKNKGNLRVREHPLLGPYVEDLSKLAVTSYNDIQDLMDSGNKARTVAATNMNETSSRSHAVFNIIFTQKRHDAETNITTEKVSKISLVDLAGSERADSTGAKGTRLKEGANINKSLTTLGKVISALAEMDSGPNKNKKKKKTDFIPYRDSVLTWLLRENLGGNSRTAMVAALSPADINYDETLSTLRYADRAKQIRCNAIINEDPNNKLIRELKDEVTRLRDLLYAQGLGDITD

KIF1A(1–393)-Myc (rat) = molecular target: T3, KIF1A(1–393)-Myc (rat) (UniProt F1M4A4); assay: co-IP; lysates of COS cells coexpressing Myc- and mCit-tagged KIF1A constructs of the same length; immunoprecipitated with anti-Myc or control IgG, SDS-PAGE, immunoblot
T3 sequence: T2 sequence

KIF1A(1–381)-mCit (rat) = KIF1A(1–381)-mCit (rat) (UniProt F1M4A4); assay: cross-linking; lysates of transfected COS cells in borate buffer (50 mM NaBorate, 100 mM potassium acetate, 2 mM MgCl2, 1 mM EGTA, 1% Triton X-100, pH 8.57), 20 mM DMP for 30 min or untreated; SDS-PAGE, immunoblot
KIF1A(1–377)-mCit (rat) = KIF1A(1–377)-mCit (rat) (UniProt F1M4A4); assay: as above

B1: mCit-KIF1A (natural protein, rat, UniProt F1M4A4 1-1707, looked up)
chain: MAGASVKVAVRVRPFNSREMSRDSKCIIQMSGSTTTIVNPKQPKETPKSFSFDYSYWSHTSPEDINYASQKQVYRDIGEEMLQHAFEGYNVCIFAYGQTGAGKSYTMMGKQEKDQQGIIPQLCEDLFSRINDTTNDNMSYSVEVSYMEIYCERVRDLLNPKNKGNLRVREHPLLGPYVEDLSKLAVTSYNDIQDLMDSGNKARTVAATNMNETSSRSHAVFNIIFTQKRHDAETNITTEKVSKISLVDLAGSERADSTGAKGTRLKEGANINKSLTTLGKVISALAEMDSGPNKNKKKKKTDFIPYRDSVLTWLLRENLGGNSRTAMVAALSPADINYDETLSTLRYADRAKQIRCNAIINEDPNNKLIRELKDEVTRLRDLLYAQGLGDITDTNTVPGGPKLTNALVGMSPSSSLSALSSRAASVSSLHERILFAPGSEEAIERLKETEKIIAELNETWEEKLRRTEAIRMEREALLAEMGVAMREDGGTLGVFSPKKTPHLVNLNEDPLMSECLLYYIKDGVTRVGREDAERRQDIVLSGHFIKEEHCIFRSDSRGGGEAVVTLEPCEGADTYVNGKKVTEPSILRSGNRIIMGKSHVFRFNHPEQARQERERTPCAETPAEPVDWAFAQRELLEKQGIDMKQEMEQRLQELEDQYRREREEATYLLEQQRLDYESKLEALQKQMDSRYYPEVNEEEEEPEDEVQWTERECELALWAFRKWKWYQFTSLRDLLWGNAIFLKEANAISVELKKKVQFQFVLLTDTLYSPLPPDLLPPEAAKDRETRPFPRTIVAVEVQDQKNGATHYWTLEKLRQRLDLMREMYDRAAEVPSSVVEDCDNVVTGGDPFYDRFPWFRLVGRAFVYLSNLLYPVPLVHRVAIVSEKGEVKGFLRVAVQAISADEEAPDYGSGVRQSGTAKISFDDQHFEKFQSESCPVVGMSRSGTSQEELRIVEGQGQGADAGPSADEVNNNTCSAVPPEGLLDSPEKAALDGPLDTALDHLRLGSTFTFRVTVLQASSISAEYADIFCQFNFIHRHDEAFSTEPLKNTGRGPPLGFYHVQNIAVEVTKSFIEYIKSQPIVFEVFGHYQQHPFPPLCKDVLSPLRPSRRHFPRVMPLSKPVPATKLSTMTRPSPGPCHCKYDLLVYFEICELEANGDYIPAVVDHRGGMPCMGTFLLHQGIQRRITVTLLHETGSHIRWKEVRELVVGRIRNTPETDEALIDPNILSLNILSSGYVHPAQDDRQFLDSDIPRTFYQFEAAWDSSMHNSLLLNRVTPYREKIYMTLSAYIEMENCTQPAVITKDFCMVFYSRDAKLPASRSIRNLFGSGSLRATEGNRVTGVYELSLCHVADAGSPGMQRRRRRVLDTSVAYVRGEENLAGWRPRSDSLILDHQWELEKLSLLQEVEKTRHYLLLREKLETTQRPVPEVLSPASSEDSESRSSSGASSPLSAEGQPSPLEVPNERQRELAVKCLRLLMHTFNREYTHSHVCISASESKLSEMSVTLMRDPSMSPLGAATLTPSSTCPSLIEGRYGATDVRTPQPCSRPASPEPELLPELDSKKTPSPVRATETEKEPQRLLVPDIQEIRVSPIVSKKGYLHFLEPHTAGWAKRFVVVRRPYAYMYNSDKDTVERFVLNLSTAQVEYSEDQQAMLKTPNTFAVCTEHRGILLQANSDKDMHDWLYAFNPLLAGTIRSKLSRRRSAQMRV
notes: KIF1A (Kinesin-3 motor), rat, full length; also called mCit-tagged KIF1A; FL KIF1A; source: COS cells, transfected; in lysate and in live cells; not shown: mCit (monomeric citrine), N-terminal, kept
binding (Myc-KIF1A (rat)): binds

B2: endogenous KIF1A in rat brain cytosol (natural protein, rat (endogenous in rat brain), UniProt F1M4A4 1-1707, looked up)
chain: B1 chain
notes: KIF1A, endogenous protein of rat brain cytosol; source: endogenous, cytosolic extract of rat brain
binding [1]: binds

B3: KIF1A(1–726)-mCit (domain or fragment, rat, UniProt F1M4A4 1-726, looked up)
chain: T1 sequence
notes: source: COS cells, transfected, in lysate; not shown: mCit (monomeric citrine), C-terminal, kept
binding (KIF1A(1–726)-Myc (rat)): binds

B4: KIF1A(1–393)-3xmCherry (domain or fragment, UniProt F1M4A4 1-393)
chain: T2 sequence
binding [2]: binds

B5: KIF1A(1–393)-mCit (domain or fragment, rat, UniProt F1M4A4 1-393, looked up)
chain: T2 sequence
notes: full NC and several residues of the hinge; Plasmid was a gift from Gary Banker; source: COS cells, transfected, in lysate; not shown: mCit (monomeric citrine), C-terminal, kept
binding (KIF1A(1–393)-Myc (rat)): binds

B6: KIF1A(1–381)-mCit (domain or fragment, UniProt F1M4A4 1-381)
chain: MAGASVKVAVRVRPFNSREMSRDSKCIIQMSGSTTTIVNPKQPKETPKSFSFDYSYWSHTSPEDINYASQKQVYRDIGEEMLQHAFEGYNVCIFAYGQTGAGKSYTMMGKQEKDQQGIIPQLCEDLFSRINDTTNDNMSYSVEVSYMEIYCERVRDLLNPKNKGNLRVREHPLLGPYVEDLSKLAVTSYNDIQDLMDSGNKARTVAATNMNETSSRSHAVFNIIFTQKRHDAETNITTEKVSKISLVDLAGSERADSTGAKGTRLKEGANINKSLTTLGKVISALAEMDSGPNKNKKKKKTDFIPYRDSVLTWLLRENLGGNSRTAMVAALSPADINYDETLSTLRYADRAKQIRCNAIINEDPNNKLIRELKDEVTRLRD
binding (KIF1A(1–381)-mCit (rat)): no binding

B7: KIF1A(1–377)-mCit (domain or fragment, UniProt F1M4A4 1-377)
chain: MAGASVKVAVRVRPFNSREMSRDSKCIIQMSGSTTTIVNPKQPKETPKSFSFDYSYWSHTSPEDINYASQKQVYRDIGEEMLQHAFEGYNVCIFAYGQTGAGKSYTMMGKQEKDQQGIIPQLCEDLFSRINDTTNDNMSYSVEVSYMEIYCERVRDLLNPKNKGNLRVREHPLLGPYVEDLSKLAVTSYNDIQDLMDSGNKARTVAATNMNETSSRSHAVFNIIFTQKRHDAETNITTEKVSKISLVDLAGSERADSTGAKGTRLKEGANINKSLTTLGKVISALAEMDSGPNKNKKKKKTDFIPYRDSVLTWLLRENLGGNSRTAMVAALSPADINYDETLSTLRYADRAKQIRCNAIINEDPNNKLIRELKDEVT
binding (KIF1A(1–377)-mCit (rat)): no binding
